Measured values: a collection of fitness landscapes (doi:10.1126/science.1257360)
Some of the results follow.

B1: PhoQ; a variant is named by its letters at X, in order, P23837 (parent)
chain: MKKLLRLFFPLSLRVRFLLATAAVVLVLSLAYGMVALIGYSVSFDKTTFRLLRGESNLFYTLAKWENNKLHVELPENIDKQSPTMTLIYDENGQLLWAQRDVPWLMKMIQPDWLKSNGFHEIEADVNDTSLLLSGDHSIQQQLQEVREDDDDAEMTHSVAVNVYPATSRMPKLTIVVVDTIPVELKSSYMVWSWFIYVLSANLLLVIPLLWVAAWWSLRPIEALAKEVRELEEHNRELLNPATTRELTSLVRNLNRLLKSERERYDKYRTTLTDLTHSLKTPLXXLQXXLRSLRSEKMSVSDAEPVMLEQISRISQQIGYYLHRASMRGGTLLSRELHPVAPLLDNLTSALNKVYQRKGVNISLDISPEISFVGEQNDFVEVMGNVLDNACKYCLEFVEISARQTDEHLYIVVEDDGPGIPLSKREVIFDRGQRVDTLRPGQGVGLAVAREITEQYEGKIVAGESMLGGARMEVIFGRQHSAPKDE

Variants of: B1
Test: enrichment ratio after two sorts for PhoP signalling (ratio (wild type AVST 3.29)); higher = more functional
Details: with PhoP (E. coli)

Variant | enrichment ratio
AMDI | ≤ 0.25
WAKH | ≤ 0.25
MFGG | ≤ 0.25
MDHI | ≤ 0.25
LYNG | ≤ 0.25
SVIV | 0.252
DLFE | ≤ 0.25
AHMY | 0.614
DKKA | ≤ 0.25
WEIQ | ≤ 0.25
DNCT | ≤ 0.25
RPYA | ≤ 0.25
WDFF | ≤ 0.25
VQDP | ≤ 0.25
RTRH | ≤ 0.25
VIYI | ≤ 0.25
DIGW | ≤ 0.25
MGRR | ≤ 0.25
VKVH | ≤ 0.25
NTMK | ≤ 0.25
NGWD | ≤ 0.25

Variant | enrichment ratio
VFSH | ≤ 0.25
AESN | 11
RVES | ≤ 0.25
ESQI | ≤ 0.25
HLFC | ≤ 0.25
IPNF | ≤ 0.25
TGEG | ≤ 0.25
WPKY | ≤ 0.25
IAQG | ≤ 0.25
IIRK | ≤ 0.25
WVWY | ≤ 0.25
EAHC | ≤ 0.25
LGAI | ≤ 0.25
DLWF | ≤ 0.25
NDHK | ≤ 0.25
KPYP | ≤ 0.25
IRIE | ≤ 0.25
DHWI | ≤ 0.25
DVQA | ≤ 0.25
LIDG | ≤ 0.25
IWNA | ≤ 0.25

Variant | enrichment ratio
VHYC | ≤ 0.25
FNGC | ≤ 0.25
WQRI | ≤ 0.25
FNMY | ≤ 0.25
EMGW | ≤ 0.25
WDGY | ≤ 0.25
MGEY | ≤ 0.25
IFYC | ≤ 0.25
YYII | ≤ 0.25
MKNM | ≤ 0.25
RLRD | ≤ 0.25
KGTN | ≤ 0.25
FRNM | ≤ 0.25
GMCG | 7.32
RNVH | ≤ 0.25
TFYI | ≤ 0.25
SHIT | ≤ 0.25
KHPY | ≤ 0.25
TRYW | ≤ 0.25
DHKR | ≤ 0.25
PRSQ | ≤ 0.25

Variant | enrichment ratio
EKPD | ≤ 0.25
YCPL | ≤ 0.25
ARNF | ≤ 0.25
ENWV | ≤ 0.25
AKFL | ≤ 0.25
PELR | ≤ 0.25
MVFW | ≤ 0.25
TAYK | ≤ 0.25
HWYR | ≤ 0.25
ICHW | ≤ 0.25
LKLD | ≤ 0.25
KQYS | ≤ 0.25
LSTV | ≤ 0.25
MLSP | ≤ 0.25
SFFC | ≤ 0.25
VIKP | ≤ 0.25
YLNN | ≤ 0.25
AGIM | 11.8
MTGC | 7.29
HNLE | ≤ 0.25
FNNM | ≤ 0.25
